Here are results for 55 compounds from ChEMBL document CHEMBL4888484, “Replenishing the malaria drug discovery pipeline: Screening and hit evaluation of the MMV Hit Generation Library 1 (HGL1) against asexual blood stage Plasmodium falciparum ,using a nano luciferase reporter read-out” (2022).

The whole screen tested about 150,000 compounds, of which about 540 (0.36%) showed an effect of 50% or more. Some of the results follow.

The assay has as its system Plasmodium falciparum. As to the kind of experiment: Primary screen in NF54 nanoGlo assay, in single point, at 2uM, 72h; a lower Z score goes with more inhibition. Format: functional, Erythrocyte. To be noted: timepoint 72 hour.
One may read the % Inhibition as the relative decrease from the control value, in per cent. Consider `O=C(Nc1ncccc1O)c1c[nH]c2cc(Cl)ccc12`, for which the “% Inhibition” value worked out at 6% and the Z score is reported as -1.13.

As to `COc1cccc(-c2[nH]c3c(C#N)cnn3c2NC2CCCCCC2)c1`, the “% Inhibition” value is -4% and the Z score was determined as 0.82.

For the compound `Cc1ccc(-n2ncc3c(=O)n(CC(=O)N4CCCC4)cnc32)c(C)c1`, the “% Inhibition” value is -11% and the Z score is listed as 2.13.

Regarding `CC(C)c1noc(NCCn2ccnc2)n1`, the “% Inhibition” value is recorded as -2% and the Z score is recorded as 0.43.

Turning to `CC(=O)Nc1ccc(C(=O)N(C)[C@@H](C)C(C)(C)C)cc1`, the “% Inhibition” value is reported as -2% and the Z score was found to be 0.39.

In the case of `Cc1ccc(S(=O)(=O)Nc2ccc(-c3noc(-c4ccc(C#N)cc4F)n3)cc2)cc1`, the “% Inhibition” value was determined as 8% and the Z score is -0.91.

As to `CCOc1ncccc1C(=O)NC(C)C1CCCO1` (stereo not given), the “% Inhibition” value is given as -18% and the Z score was 2.87.

Take `CCC1CN2CCCC2CN1Cc1cc2ccccc2o1` (stereo not given): the “% Inhibition” value is given as -2% and the Z score came to 0.15.

`CN(C)C(=O)C1CCN(C(=O)Nc2nnc(CC3CCCCC3)s2)CC1`: the “% Inhibition” value is recorded as -11% and the Z score was 1.36.

For the compound `CCOC(=O)c1nccn1CC(=O)Nc1ccnn1Cc1cccc(F)c1`, the “% Inhibition” value is reported as -9% and the Z score was determined as 1.82.

With `CC(C)c1n[nH]c(C2CN(C3CCOC3=O)CCO2)n1` (stereo not given), the “% Inhibition” value is given as -2% and the Z score stood at 0.32.

Turning to `CC(C)c1csc(CN2CCC(CCC(=O)NCc3cccc(Cl)c3)CC2)n1`, the “% Inhibition” value is recorded as -15% and the Z score is given as 1.35.

As to `CC[C@@](C)(CCO)NC(=O)C1CCCCCC1`, the “% Inhibition” value was -6% and the Z score is reported as 1.15.

Take `Cc1ccnc(NCCNC(=O)CCN2CCCCO2)c1`: the “% Inhibition” value is reported as -10% and the Z score came to 1.94.

With `COc1ccc(-n2c(-c3sc(Nc4ccc(Cl)cc4)nc3C)nc3ccccc3c2=O)cc1`, the “% Inhibition” value is given as -3% and the Z score amounted to 0.38.

Take `CNC(=O)[C@H]1CC[C@H](CNc2nc(C)nc(C)c2C)CC1`: the “% Inhibition” value is on record as -14% and the Z score is 1.82.

Turning to `CCc1ccc(-c2nccn2[C@@H](C)c2ccncn2)nc1`, the “% Inhibition” value is given as -3% and the Z score worked out at 0.43.

As for `CCc1ncnc(N2CCNC(=O)C2)c1F`, the “% Inhibition” value is -13% and the Z score is recorded as 1.61.

With `COc1ccccc1CC(=O)NC[C@H](C)N1CCCC1`, the “% Inhibition” value is 0% and the Z score amounted to 0.06.

`Cc1cc(-c2ccc(S(=O)(=O)NCc3cccs3)s2)n[nH]1`: the “% Inhibition” value was 6% and the Z score is recorded as -0.7.

On to `CCc1nn(Cc2nc(N)nc(N(C)C)n2)c(=O)c(C#N)c1CC`, for which the “% Inhibition” value is on record as -5% and the Z score came out at 0.61.

For the compound `Cc1ccc2c(c1)O[C@@H](C)CN2Cc1noc(C)n1`, the “% Inhibition” value is -10% and the Z score was determined as 1.5.

Take `O=C(c1cc(O)ccn1)N1CCC[C@@H]2O[C@H](c3ccccc3)C[C@@H]21`: the “% Inhibition” value is on record as -16% and the Z score is reported as 3.39.

In the case of `Cc1c(C#N)c(N)c(C(=O)c2ccccc2)n1CC#N`, the “% Inhibition” value was -32% and the Z score came out at 3.72.

For the compound `Cc1nc(OCC(=O)NCCC2=CCCCC2)c2c(-c3ccc(F)cc3)noc2n1`, the “% Inhibition” value was -3% and the Z score was determined as 0.48.

On to `O=C(CCC(=O)N1Cc2ccccc2Oc2ncccc21)NCc1ccccc1Cl`, for which the “% Inhibition” value amounted to 2% and the Z score is reported as -0.26.

Take `CC(C)c1nccn1C1CN(C(=O)c2ccccn2)C1`: the “% Inhibition” value was -5% and the Z score is recorded as 0.67.

Consider `C#CCN1C(=O)C2(NC(C)C3C(=O)N(c4cccc5ccccc45)C(=O)C32)c2ccccc21` (stereo not given), for which the “% Inhibition” value is 5% and the Z score is -0.56.

In the case of `C[C@H](NCCCc1ccc(Br)cc1F)c1cnccn1`, the “% Inhibition” value was determined as 0% and the Z score is -0.01.

With `COc1ccnc(NCC2CCC(S(C)(=O)=O)CC2)n1` (stereo not given), the “% Inhibition” value is 7% and the Z score was -1.21.

Turning to `CCCCC(=O)N(Cc1ccc(-c2ccccc2-c2nnn[nH]2)cc1)[C@H](C(=O)NC1CC1)C(C)C`, the “% Inhibition” value was -13% and the Z score amounted to 1.63.

`O=S(=O)(CC1CCCCO1)N1CCC(c2nc(C3CC3)no2)C1` (stereo not given): the “% Inhibition” value is given as -5% and the Z score was found to be 0.66.

On to `CC(=O)c1sc(-c2ccc(C)n2C)nc1C`, for which the “% Inhibition” value stood at 1% and the Z score is reported as -0.11.

With `CCCNS(=O)(=O)c1cc(NC(=O)c2cccs2)ccc1Oc1cc(C(=O)O)nn1C`, the “% Inhibition” value is given as -18% and the Z score came to 2.08.

As to `CC(C)c1cc(N2CCCS(=O)(=O)CC2)ncn1`, the “% Inhibition” value is recorded as -7% and the Z score worked out at 1.09.

As to `O=C(NC(Cc1ccncc1)[C@H]1C[C@H](O)C1)c1cccn2cnnc12` (stereo not given in full), the “% Inhibition” value is listed as -7% and the Z score worked out at 0.72.

`COc1ccc(F)c(F)c1CNC(C)(C)CC(C)C`: the “% Inhibition” value came to 1% and the Z score is recorded as -0.13.

In the case of `CC(C(=O)NCC1CCCO1)S(=O)(=O)c1ccc(F)c(F)c1` (stereo not given), the “% Inhibition” value is listed as -5% and the Z score was 0.86.

Take `O=S1(=O)CCN(c2ccccc2-c2ncnn2-c2ccccc2)CC1`: the “% Inhibition” value is reported as -2% and the Z score is recorded as 0.23.

As for `O=C(NCc1ccc(F)c(Cl)c1)[C@H]1CC12CCS(=O)(=O)CC2`, the “% Inhibition” value was -8% and the Z score was determined as 1.09.

As for `COc1c(F)ccc(C(=O)NCCc2nnc(N)s2)c1F`, the “% Inhibition” value is reported as -6% and the Z score was 0.9.

As for `CC(C)[C@H](NS(=O)(=O)N(C)C)c1nccn1C`, the “% Inhibition” value is -8% and the Z score amounted to 1.23.

As to `Cc1cc(COc2ccccc2)oc1C(=O)NCCN1CCCC1=O`, the “% Inhibition” value turned out to be 11% and the Z score is reported as -1.41.

Take `CC(C)N1C[C@H](NCc2ccccc2C(F)(F)F)C[C@H]1C(=O)NCCc1ccccc1F`: the “% Inhibition” value is listed as 6% and the Z score was -0.74.

`COc1ccc(Cc2nnnn2Cc2nnc(C)o2)cc1F`: the “% Inhibition” value was determined as 1% and the Z score is given as -0.15.

Turning to `c1ccc(CC2CCN(Cn3cnc4ccccc43)CC2)cc1`, the “% Inhibition” value is -6% and the Z score is reported as 1.

Take `OC[C@]1(O)CCCN(Cc2ccccc2C2CC2)C1`: the “% Inhibition” value was -2% and the Z score amounted to 0.34.

Consider `COc1cccc(-c2nc3ccc(-c4ccc(C(C)=O)cc4)cn3c2CN2CCN(C(=O)c3ccc(F)cc3)CC2)c1`, for which the “% Inhibition” value was 13% and the Z score is listed as -2.37.

For `COc1cc(Br)ccc1C(N)=O`, the “% Inhibition” value is reported as -1% and the Z score amounted to 0.2.

As to `CC(C)(C)C(=O)N1CCN(C(=O)CCS(C)(=O)=O)C(C)(C)C1`, the “% Inhibition” value was found to be 0% and the Z score is given as 0.05.

For the compound `Cc1cc(=O)c2c(=O)n(-c3nc4ccccc4s3)[nH]c2[nH]1`, the “% Inhibition” value is recorded as -8% and the Z score is 1.25.

Consider `Cc1oncc1C(=O)N[C@@H](C)Cc1ccc2c(c1)CCO2`, for which the “% Inhibition” value turned out to be 7% and the Z score was -1.11.

Consider `CCCn1cc(-c2ccnc(N[C@H]3CC(=O)N(C(C)C)C3)n2)c(C)n1`, for which the “% Inhibition” value is listed as -1% and the Z score is on record as 0.18.

For the compound `COc1ccc(S(=O)(=O)N2CCN([C@@H](C)CCc3ccccc3)CC2)cc1`, the “% Inhibition” value came out at 7% and the Z score is listed as -0.88.

For `CCn1c(C2CCN(C(=O)c3ccccc3Br)CC2)nn(CCOC)c1=O`, the “% Inhibition” value came to 0% and the Z score came out at 0.03.
